{
  "source": "the supplement of paper PMC8728848",
  "binders": {"B1": {"name": "Mg1lysM (Mycosphaerella graminicola) (protein)", "chain": "QRNPITITPQFDCGATNSQQYVARSGDTLTKIAQEIYHDVVGVCDIARANNLADPNRIDAGTPYTIPINCQTYDRNSCL"}},
  "assay_in_all_cases": "glycan array binding signal (z-score within array); higher = stronger binding",
  "conditions_in_all_cases": "glycan notation: IUPAC condensed, linker removed",
  "key": {"[1]": {"biological_target": "Neu5Ac(a2-6)Gal(b1-4)GlcNAc(b1-2)Man(a1-3)[GlcNAc(b1-4)][Neu5Ac(a2-6)Gal(b1-4)GlcNAc(b1-2)Man(a1-6)]Man(b1-4)GlcNAc(b1-4)GlcNAc", "outline": "(§1)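 The binding signal is a Z-score computed within each array. Data were drawn from 3228 arrays in the Consortium for Functional Glycomics database, restricted to those with a known protein sequence. Scores were averaged over arrays of the same protein sequence at different concentrations or buffers, and over linkers, and negative values can be taken as non-binding.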"}, "[2]": {"biological_target": "Neu5Ac(a2-6)Gal(b1-4)GlcNAc(b1-2)Man(a1-3)[Man(a1-6)]Man(b1-4)GlcNAc(b1-4)GlcNAc", "outline": "as §1"}, "[3]": {"biological_target": "Neu5Ac(a2-6)Gal(b1-4)GlcNAc(b1-2)Man(a1-3)[Neu5Ac(a2-3)Gal(b1-4)GlcNAc(b1-2)Man(a1-6)]Man(b1-4)GlcNAc(b1-4)GlcNAc", "outline": "as §1"}, "[4]": {"biological_target": "Neu5Ac(a2-6)Gal(b1-4)GlcNAc(b1-2)Man(a1-3)[Neu5Ac(a2-6)Gal(b1-4)GlcNAc(b1-2)Man(a1-6)]Man(b1-4)GlcNAc(b1-4)GlcNAc", "outline": "as §1"}, "[5]": {"biological_target": "Neu5Ac(a2-6)Gal(b1-4)GlcNAc(b1-2)Man(a1-3)[Neu5Ac(a2-6)Gal(b1-4)GlcNAc(b1-2)Man(a1-6)]Man(b1-4)GlcNAc(b1-4)[Fuc(a1-6)]GlcNAc", "outline": "as §1"}, "[6]": {"biological_target": "Neu5Ac(a2-6)Gal(b1-4)GlcNAc(b1-2)Man(a1-6)Man(b1-4)GlcNAc(b1-4)GlcNAc", "outline": "as §1"}, "[7]": {"biological_target": "Neu5Ac(a2-6)Gal(b1-4)GlcNAc(b1-2)Man(a1-6)[Gal(b1-4)GlcNAc(b1-2)Man(a1-3)]Man(b1-4)GlcNAc(b1-4)GlcNAc", "outline": "as §1"}, "[8]": {"biological_target": "Neu5Ac(a2-6)Gal(b1-4)GlcNAc(b1-2)Man(a1-6)[GlcNAc(b1-2)Man(a1-3)]Man(b1-4)GlcNAc(b1-4)GlcNAc", "outline": "as §1"}, "[9]": {"biological_target": "Neu5Ac(a2-6)Gal(b1-4)GlcNAc(b1-2)Man(a1-6)[Man(a1-3)]Man(b1-4)GlcNAc(b1-4)GlcNAc", "outline": "as §1"}, "[10]": {"biological_target": "Neu5Ac(a2-6)Gal(b1-4)GlcNAc(b1-2)[Neu5Ac(a2-6)Gal(b1-4)GlcNAc(b1-4)]Man(a1-3)[GlcNAc(b1-4)][Neu5Ac(a2-6)Gal(b1-4)GlcNAc(b1-2)[Neu5Ac(a2-6)Gal(b1-4)GlcNAc(b1-6)]Man(a1-6)]Man(b1-4)GlcNAc(b1-4)GlcNAc", "outline": "as §1"}, "[11]": {"biological_target": "Neu5Ac(a2-6)Gal(b1-4)GlcNAc(b1-2)[Neu5Ac(a2-6)Gal(b1-4)GlcNAc(b1-4)]Man(a1-3)[GlcNAc(b1-4)][Neu5Ac(a2-6)Gal(b1-4)GlcNAc(b1-4)Man(a1-6)]Man(b1-4)GlcNAc(b1-4)GlcNAc", "outline": "as §1"}, "[12]": {"biological_target": "Neu5Ac(a2-6)Gal(b1-4)GlcNAc(b1-2)[Neu5Ac(a2-6)Gal(b1-4)GlcNAc(b1-6)]Man(a1-6)[Neu5Ac(a2-6)Gal(b1-4)GlcNAc(b1-2)Man(a1-3)][GlcNAc(b1-4)]Man(b1-4)GlcNAc(b1-4)GlcNAc", "outline": "as §1"}, "[13]": {"biological_target": "Neu5Ac(a2-6)Gal(b1-4)GlcNAc(b1-3)Gal(b1-3)GlcNAc", "outline": "as §1"}, "[14]": {"biological_target": "Neu5Ac(a2-6)Gal(b1-4)GlcNAc(b1-3)Gal(b1-4)GlcNAc", "outline": "as §1"}, "[15]": {"biological_target": "Neu5Ac(a2-6)Gal(b1-4)GlcNAc(b1-3)Gal(b1-4)GlcNAc(b1-2)Man(a1-3)[Neu5Ac(a2-6)Gal(b1-4)GlcNAc(b1-3)Gal(b1-4)GlcNAc(b1-2)Man(a1-6)]GalNAc", "outline": "as §1"}, "[16]": {"biological_target": "Neu5Ac(a2-6)Gal(b1-4)GlcNAc(b1-3)Gal(b1-4)GlcNAc(b1-3)Gal(b1-4)GlcNAc", "outline": "as §1"}, "[17]": {"biological_target": "Neu5Ac(a2-6)Gal(b1-4)GlcNAc(b1-3)Gal(b1-4)GlcNAc(b1-3)Gal(b1-4)GlcNAc(b1-2)Man(a1-3)[Neu5Ac(a2-6)Gal(b1-4)GlcNAc(b1-3)Gal(b1-4)GlcNAc(b1-3)Gal(b1-4)GlcNAc(b1-2)Man(a1-6)]GalNAc", "outline": "as §1"}, "[18]": {"biological_target": "Neu5Ac(a2-6)Gal(b1-4)GlcNAc(b1-3)Gal(b1-4)GlcNAc(b1-3)GalNAc", "outline": "as §1"}, "[19]": {"biological_target": "Neu5Ac(a2-6)Gal(b1-4)GlcNAc(b1-3)Gal(b1-4)GlcNAc(b1-3)[Neu5Ac(a2-6)Gal(b1-4)GlcNAc(b1-3)Gal(b1-4)GlcNAc(b1-6)]GalNAc", "outline": "as §1"}, "[20]": {"biological_target": "Neu5Ac(a2-6)Gal(b1-4)GlcNAc(b1-3)Gal(b1-4)GlcNAc(b1-6)[Gal(b1-3)]GalNAc", "outline": "as §1"}, "[21]": {"biological_target": "Neu5Ac(a2-6)Gal(b1-4)GlcNAc(b1-3)Gal(b1-4)[Fuc(a1-3)]GlcNAc(b1-3)Gal(b1-4)[Fuc(a1-3)]GlcNAc", "outline": "as §1"}, "[22]": {"biological_target": "Neu5Ac(a2-6)Gal(b1-4)GlcNAc(b1-3)GalNAc", "outline": "as §1"}, "[23]": {"biological_target": "Neu5Ac(a2-6)Gal(b1-4)GlcNAc(b1-3)[Neu5Ac(a2-6)Gal(b1-4)GlcNAc(b1-6)]GalNAc", "outline": "as §1"}, "[24]": {"biological_target": "Neu5Ac(a2-6)Gal(b1-4)GlcNAc(b1-6)GalNAc", "outline": "as §1"}, "[25]": {"biological_target": "Neu5Ac(a2-6)Gal(b1-4)GlcNAc(b1-6)[Gal(b1-3)GlcNAc(b1-3)]Gal(b1-4)Glc", "outline": "as §1"}, "[26]": {"biological_target": "Neu5Ac(a2-6)Gal(b1-4)GlcNAc(b1-6)[Gal(b1-3)]GalNAc", "outline": "as §1"}, "[27]": {"biological_target": "Neu5Ac(a2-6)Gal(b1-4)GlcNAc6S", "outline": "as §1"}, "Neu5Ac(a2-6)GalNAc": {"biological_target": "Neu5Ac(a2-6)GalNAc", "outline": "as §1"}, "[28]": {"biological_target": "Neu5Ac(a2-6)GalNAc(b1-4)GlcNAc", "outline": "as §1"}, "[29]": {"biological_target": "Neu5Ac(a2-6)GalNAc(b1-4)GlcNAc6S", "outline": "as §1"}, "[30]": {"biological_target": "Neu5Ac(a2-6)GlcNAc(b1-4)GlcNAc", "outline": "as §1"}},
  "note": "The list shows a part of the results.",
  "data": [
    {"binder": "B1", "values": [
      {"measurement": "glycan array binding signal (z-score)", "setting": "[1]", "result": -0.082},
      {"measurement": "glycan array binding signal (z-score)", "setting": "[2]", "result": -0.09},
      {"measurement": "glycan array binding signal (z-score)", "setting": "[3]", "result": -0.055},
      {"measurement": "glycan array binding signal (z-score)", "setting": "[4]", "result": -0.064},
      {"measurement": "glycan array binding signal (z-score)", "setting": "[5]", "result": -0.064},
      {"measurement": "glycan array binding signal (z-score)", "setting": "[6]", "result": -0.059},
      {"measurement": "glycan array binding signal (z-score)", "setting": "[7]", "result": -0.072},
      {"measurement": "glycan array binding signal (z-score)", "setting": "[8]", "result": -0.028},
      {"measurement": "glycan array binding signal (z-score)", "setting": "[9]", "result": -0.034},
      {"measurement": "glycan array binding signal (z-score)", "setting": "[10]", "result": -0.051},
      {"measurement": "glycan array binding signal (z-score)", "setting": "[11]", "result": -0.081},
      {"measurement": "glycan array binding signal (z-score)", "setting": "[12]", "result": -0.045},
      {"measurement": "glycan array binding signal (z-score)", "setting": "[13]", "result": -0.061},
      {"measurement": "glycan array binding signal (z-score)", "setting": "[14]", "result": -0.073},
      {"measurement": "glycan array binding signal (z-score)", "setting": "[15]", "result": -0.083},
      {"measurement": "glycan array binding signal (z-score)", "setting": "[16]", "result": -0.072},
      {"measurement": "glycan array binding signal (z-score)", "setting": "[17]", "result": -0.056},
      {"measurement": "glycan array binding signal (z-score)", "setting": "[18]", "result": -0.091},
      {"measurement": "glycan array binding signal (z-score)", "setting": "[19]", "result": -0.079},
      {"measurement": "glycan array binding signal (z-score)", "setting": "[20]", "result": -0.066},
      {"measurement": "glycan array binding signal (z-score)", "setting": "[21]", "result": -0.071},
      {"measurement": "glycan array binding signal (z-score)", "setting": "[22]", "result": -0.076},
      {"measurement": "glycan array binding signal (z-score)", "setting": "[23]", "result": -0.041},
      {"measurement": "glycan array binding signal (z-score)", "setting": "[24]", "result": -0.082},
      {"measurement": "glycan array binding signal (z-score)", "setting": "[25]", "result": -0.052},
      {"measurement": "glycan array binding signal (z-score)", "setting": "[26]", "result": -0.072},
      {"measurement": "glycan array binding signal (z-score)", "setting": "[27]", "result": -0.062},
      {"measurement": "glycan array binding signal (z-score)", "setting": "Neu5Ac(a2-6)GalNAc", "result": -0.077},
      {"measurement": "glycan array binding signal (z-score)", "setting": "[28]", "result": 0.004},
      {"measurement": "glycan array binding signal (z-score)", "setting": "[29]", "result": -0.083},
      {"measurement": "glycan array binding signal (z-score)", "setting": "[30]", "result": -0.057}
    ]}
  ]
}
